Screen size: about 310,000 compounds; about 2,200 (0.71%) showed an effect of 50% or more. Effects have a minus sign here. This is one part of the list.
These compounds were tested against human ether-à-go-go-related gene (hERG) potassium channel (human, UniProt Q12809) (assay: primary screen, population patch clamp on CHO cells stably expressing hERG).
Chain of human ether-à-go-go-related gene (hERG) potassium channel (Q12809 whole entry, looked up): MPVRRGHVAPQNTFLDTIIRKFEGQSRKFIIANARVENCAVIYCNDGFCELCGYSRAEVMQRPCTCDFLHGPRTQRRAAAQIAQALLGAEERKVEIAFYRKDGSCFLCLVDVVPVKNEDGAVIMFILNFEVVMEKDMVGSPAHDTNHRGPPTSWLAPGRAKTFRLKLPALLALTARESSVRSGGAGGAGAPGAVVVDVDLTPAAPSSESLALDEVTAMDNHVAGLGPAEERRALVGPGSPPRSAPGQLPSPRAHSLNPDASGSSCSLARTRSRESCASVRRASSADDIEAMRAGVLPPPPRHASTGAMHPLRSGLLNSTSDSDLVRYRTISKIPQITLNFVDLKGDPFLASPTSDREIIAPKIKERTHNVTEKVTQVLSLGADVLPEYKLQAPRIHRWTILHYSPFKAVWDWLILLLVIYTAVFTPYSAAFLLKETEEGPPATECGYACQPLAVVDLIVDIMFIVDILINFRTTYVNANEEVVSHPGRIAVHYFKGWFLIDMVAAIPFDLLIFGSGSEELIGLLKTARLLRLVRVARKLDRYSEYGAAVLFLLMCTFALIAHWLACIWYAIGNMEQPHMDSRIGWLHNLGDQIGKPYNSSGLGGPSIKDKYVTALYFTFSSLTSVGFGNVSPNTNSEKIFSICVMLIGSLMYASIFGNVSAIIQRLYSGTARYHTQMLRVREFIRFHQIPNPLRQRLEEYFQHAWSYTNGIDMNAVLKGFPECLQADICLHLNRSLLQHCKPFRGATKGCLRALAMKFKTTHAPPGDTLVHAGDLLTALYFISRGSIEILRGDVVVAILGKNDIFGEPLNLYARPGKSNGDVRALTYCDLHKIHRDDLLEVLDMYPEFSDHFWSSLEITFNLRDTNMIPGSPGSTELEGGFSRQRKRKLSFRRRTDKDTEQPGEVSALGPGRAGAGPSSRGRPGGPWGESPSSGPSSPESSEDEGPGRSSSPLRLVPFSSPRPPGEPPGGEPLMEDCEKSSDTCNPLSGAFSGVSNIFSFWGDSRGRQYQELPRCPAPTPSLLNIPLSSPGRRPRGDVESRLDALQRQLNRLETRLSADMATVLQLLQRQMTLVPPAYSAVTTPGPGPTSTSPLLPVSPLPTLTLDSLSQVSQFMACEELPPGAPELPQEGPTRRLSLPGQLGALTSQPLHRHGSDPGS
In the case of `Cc1ccc(C(=O)/C=C/Nc2ccc(S(=O)(=O)Nc3cc(C)nc(C)n3)cc2)cc1`, the “hERG current change (%, negative = inhibition) at 1uM” value is reported as 22.1%.
With `CCOC(=O)C1=C(C)NC(c2cccs2)C(=O)N1` (stereo not shown) the “hERG current change (%, negative = inhibition) at 1uM” value was 15.4%.
`COc1ccc(-c2csc3nc(C(C)(C)C)oc(=O)c23)cc1OC` was tested, and the “hERG current change (%, negative = inhibition) at 1uM” value was 3.7%.
For `CCc1ccc(N(CC(=O)NCc2ccc(F)cc2)C(=O)c2csnn2)cc1`, the “hERG current change (%, negative = inhibition) at 1uM” value was -6.43%.
For `O=C1CCCN1CCCNC(=S)Nc1ccc(Nc2ccccc2)cc1`, the “hERG current change (%, negative = inhibition) at 1uM” value was 3.08%.
For `Cc1ccc(NC(=O)c2ccc(NC(=O)C3CCCCC3C(=O)O)cc2)cc1` (stereo not shown), the “hERG current change (%, negative = inhibition) at 1uM” value was 13.3%.
For `CCC(=O)c1c[nH]c(C(=O)N2CCN(c3ccccc3)CC2)c1`, the “hERG current change (%, negative = inhibition) at 1uM” value was -5.99%.
In the case of `Cl.N=c1n(Cc2ccccc2)c2ccccc2n1CC(O)COc1ccccc1` (stereo not shown), the “hERG current change (%, negative = inhibition) at 1uM” value is reported as -55.8%.
`COc1cc(CN2CCN(CC#Cc3ccccc3)CC2CCO)cc(OC)c1` (stereo not shown) was tested, and the “hERG current change (%, negative = inhibition) at 1uM” value was 8.01%.
For `Cc1c(NC(=O)c2n[nH]c(=O)c3ccccc23)c(=O)n(-c2ccccc2)n1C`, the “hERG current change (%, negative = inhibition) at 1uM” value was 26.3%.
With `CC(CNC(=O)c1ccc(C(C)(C)C)cc1)CN(C)C.Cl` (stereo not shown) the “hERG current change (%, negative = inhibition) at 1uM” value was 9.28%.
`Cl.Clc1ccc(CNC2CCCC2)c(Cl)c1` was tested, and the “hERG current change (%, negative = inhibition) at 1uM” value was 7.35%.
In the case of `O=C(/C=C/c1cccc(Cl)c1)NCCN1CCOCC1`, the “hERG current change (%, negative = inhibition) at 1uM” value is reported as 1.19%.
With `CCCC1=Nc2cc(C(=O)N3CCCC3)ccc2Sc2ccc(C)cc21` the “hERG current change (%, negative = inhibition) at 1uM” value was 11.7%.
In the case of `COc1ccc2nc(N/C(=N/S(=O)(=O)c3cccs3)c3ccccc3Cl)sc2c1`, the “hERG current change (%, negative = inhibition) at 1uM” value is reported as -6.03%.
With `OCC1(CCOc2ccccc2)CCN(Cc2nc3ccc(F)cc3[nH]2)CC1` the “hERG current change (%, negative = inhibition) at 1uM” value was -15.9%.
For `Cc1cc(CNC(=O)c2cc(-c3ccccc3)nc3ccccc23)nn1C`, the “hERG current change (%, negative = inhibition) at 1uM” value was 6.44%.
`COC(=O)c1ccccc1NC(=O)/C=C/c1ccco1` was tested, and the “hERG current change (%, negative = inhibition) at 1uM” value was 3.42%.
With `Oc1ccc2ccccc2c1CN1CCN(C/C=C/c2ccccc2)CC1` the “hERG current change (%, negative = inhibition) at 1uM” value was 11.5%.
`CC(=O)Nc1nc2ccc(NC(=O)c3ccco3)cc2s1` was tested, and the “hERG current change (%, negative = inhibition) at 1uM” value was 8.18%.
`Cc1ccc(NC(=O)c2cccc(S(C)(=O)=O)c2)cc1` was tested, and the “hERG current change (%, negative = inhibition) at 1uM” value was 11.5%.
With `S=c1[nH]c(-c2ccccc2)cn1/N=C/c1ccncc1` the “hERG current change (%, negative = inhibition) at 1uM” value was 0.515%.
With `O=C(NCc1ccccn1)Nc1ccc(Cl)cc1Cl` the “hERG current change (%, negative = inhibition) at 1uM” value was 16%.
`CCN(CC(N)=O)S(=O)(=O)c1ccc(F)cc1` was tested, and the “hERG current change (%, negative = inhibition) at 1uM” value was 0.425%.
For `CCOc1ccc(NC(=O)CC2C(=O)N(c3cccc(OC)c3)C(=O)N2CCOC)cc1` (stereo not shown), the “hERG current change (%, negative = inhibition) at 1uM” value was 3.67%.
With `O=C(c1ncc[nH]1)c1ccccc1Cl` the “hERG current change (%, negative = inhibition) at 1uM” value was -4.31%.
With `Fc1ccc(-c2[nH]ncc2CN(CC2CCC2)CC2CCCO2)c(F)c1` (stereo not shown) the “hERG current change (%, negative = inhibition) at 1uM” value was 5.94%.
In the case of `CSc1ccccc1NC(=O)CN(C)C(C)C(=O)Nc1ccc(C#N)cc1` (stereo not shown), the “hERG current change (%, negative = inhibition) at 1uM” value is reported as -11.6%.
In the case of `CCCCN(C(=O)c1ccc(Cl)cc1)C1CC2CCC(C1)N2C.Cl` (stereo not shown), the “hERG current change (%, negative = inhibition) at 1uM” value is reported as -15.6%.
`CN(C)CCCN(C(=O)c1cc(Cl)sc1Cl)c1nc2cc3c(cc2s1)OCO3.Cl` was tested, and the “hERG current change (%, negative = inhibition) at 1uM” value was 13.8%.
In the case of `CN(CCCNC(=O)c1ccccc1F)CCCNC(=O)c1ccccc1F`, the “hERG current change (%, negative = inhibition) at 1uM” value is reported as 11.8%.
In the case of `CC(C)C(=O)N1CCN(c2ccccc2N)CC1`, the “hERG current change (%, negative = inhibition) at 1uM” value is reported as -1.23%.
`Cc1cc(C)nc(SCc2ccccc2C#N)n1` was tested, and the “hERG current change (%, negative = inhibition) at 1uM” value was -2.59%.
With `CCNS(=O)(=O)c1ccc(C)c(-n2cnnn2)c1C` the “hERG current change (%, negative = inhibition) at 1uM” value was 1.09%.
In the case of `CCC(=O)Nc1ccc(C(=O)CSc2nnc(-c3ccc(NS(C)(=O)=O)cc3)n2C)cc1OC`, the “hERG current change (%, negative = inhibition) at 1uM” value is reported as 12.2%.
For `Cc1cc(Br)ccc1N1C(=O)CC(=O)NC1=O`, the “hERG current change (%, negative = inhibition) at 1uM” value was 8.94%.
In the case of `COc1ccc(S(=O)(=O)Nc2cc([N+](=O)[O-])ccc2OC)cc1`, the “hERG current change (%, negative = inhibition) at 1uM” value is reported as -4.26%.
For `Cc1ccccc1OC1=NS(=O)(=O)c2ccccc21`, the “hERG current change (%, negative = inhibition) at 1uM” value was 2.4%.
With `COc1cc(C(=O)Nc2ccc(S(=O)(=O)NC(C)(C)C)cc2)cc(OC)c1OC` the “hERG current change (%, negative = inhibition) at 1uM” value was 0.32%.
In the case of `CC(=O)N1N=C(c2ccccc2)OC1c1ccc([N+](=O)[O-])s1` (stereo not shown), the “hERG current change (%, negative = inhibition) at 1uM” value is reported as 7.51%.
`COc1ccc(-c2csc(NC(=O)C3CSC4(C)CCC(=O)N34)n2)cc1` (stereo not shown) was tested, and the “hERG current change (%, negative = inhibition) at 1uM” value was 20.5%.
In the case of `COC(=O)C1=NNC2(c3ccc(Cl)cc3)C(=O)N(c3ccccc3)C(=O)C12` (stereo not shown), the “hERG current change (%, negative = inhibition) at 1uM” value is reported as 8.03%.
In the case of `CC(C)C(=O)Nc1cc2c3c(c1)CCN3C(=O)CC2`, the “hERG current change (%, negative = inhibition) at 1uM” value is reported as 13.1%.
For `Fc1ccc(CNC(=S)Nc2cccc(Cl)c2)cc1`, the “hERG current change (%, negative = inhibition) at 1uM” value was 3.96%.
`COC(=O)C1=C(N)c2ccccc2C1(C#N)c1ccccc1` (stereo not shown) was tested, and the “hERG current change (%, negative = inhibition) at 1uM” value was 3.61%.
In the case of `CCOC(=O)C1CCCN(C(=O)CC(C)c2ccccc2)C1` (stereo not shown), the “hERG current change (%, negative = inhibition) at 1uM” value is reported as 9.14%.
With `O=C(Cn1nc(C(F)(F)F)c2c1CCC2)Nc1ccccc1C(F)(F)F` the “hERG current change (%, negative = inhibition) at 1uM” value was 9.07%.
For `COc1ccc(-c2c(C)c3cc(O)ccc3oc2=O)cc1OC`, the “hERG current change (%, negative = inhibition) at 1uM” value was 10.8%.
With `CCOC(=O)c1cnc(SCc2ccc(C(C)(C)C)cc2)nc1N` the “hERG current change (%, negative = inhibition) at 1uM” value was 8.91%.
For `CCN(C(=O)CN1CCN(c2cccc(Cl)c2)CC1)c1c(N)n(Cc2ccccc2)c(=O)[nH]c1=O`, the “hERG current change (%, negative = inhibition) at 1uM” value was 5.11%.
In the case of `CCOC(=O)c1c(-c2ccc(C)o2)csc1NC(=O)CN1CCC(C(N)=O)CC1`, the “hERG current change (%, negative = inhibition) at 1uM” value is reported as -2.98%.
With `COc1cccc(/C=N/NC(=O)c2ccc3nc[nH]c3c2)c1` the “hERG current change (%, negative = inhibition) at 1uM” value was 13.5%.
In the case of `CC1Cc2cc(C3(O)C(=O)c4ccccc4C3=O)ccc2N1` (stereo not shown), the “hERG current change (%, negative = inhibition) at 1uM” value is reported as 7.72%.
`CCOC(=O)Cn1nc(C)c(NC(=O)CCc2ccc(OC)cc2)c1C` was tested, and the “hERG current change (%, negative = inhibition) at 1uM” value was 19.6%.
In the case of `Cc1ccc(NC(=S)NN(C)c2nc(C)cnc2C)cc1`, the “hERG current change (%, negative = inhibition) at 1uM” value is reported as 11.3%.
For `CC(NC(=O)Cc1cccs1)c1ccncc1` (stereo not shown), the “hERG current change (%, negative = inhibition) at 1uM” value was 1.08%.
With `CC(C)C[C@H](NC(=O)OC(C)(C)C)C(=O)N[C@@H](CO)[C@H](O)[C@@H]1C[C@@H]1C(=O)NC1CCCCC1` the “hERG current change (%, negative = inhibition) at 1uM” value was 6.78%.
For `Nc1nnc(SCc2cc3c(cc2Cl)OCO3)s1`, the “hERG current change (%, negative = inhibition) at 1uM” value was -4.6%.

— publication PMC4336329 (PLoS ONE, 2015)
